We go through 41 compounds from ChEMBL document CHEMBL4888484, “Replenishing the malaria drug discovery pipeline: Screening and hit evaluation of the MMV Hit Generation Library 1 (HGL1) against asexual blood stage Plasmodium falciparum ,using a nano luciferase reporter read-out” (2022).

The campaign covered roughly 150,000 compounds. About 540 (0.36%) showed an effect of 50% or more. The list shows a part of the results.

This test has as its system Plasmodium falciparum. As to the kind of experiment: Primary screen in NF54 nanoGlo assay, in single point, at 2uM, 72h; a lower Z score goes with more inhibition. It counts as functional, Erythrocyte. To be noted: timepoint 72 hour.
`O=C(c1cccc(N2CCCC2=O)c1)N1CCc2ccccc2C1`: the “% Inhibition” value is recorded as -15% and the Z score was found to be 1.32.
The corresponding values for `O=C1CN(C(=O)NC2CC3CC3C2)CN1CCC(F)(F)F` (configuration not stated) are -1% and 0.12.
For the compound `CC(C)(C)c1ccnc(NC(=O)N[C@@H](CO)C(C)(C)C)n1`, the “% Inhibition” value is recorded as -6% and the Z score worked out at 0.93.
Regarding `CCC1(CC)C(OC)CC1N(C)c1nnc(C(F)F)o1` (configuration not stated), the “% Inhibition” value was -3% and the Z score came out at 0.63.
Regarding `Cc1ccc(-c2nnc(N3CCC(C(=O)NCc4ccc(F)c(Cl)c4)CC3)o2)cc1`, the “% Inhibition” value is on record as -9% and the Z score was found to be 1.42.
Turning to `CN(C(=O)C1=CC(c2ccc3c(c2)OCO3)=NS(=O)(=O)N1C)c1ccccc1`, the “% Inhibition” value is -9% and the Z score is on record as 1.72.
For `CCn1c2c(c(=O)n3ncc(C(=O)N4CCC(Cc5ccccc5)CC4)c13)CNCC2`, the “% Inhibition” value is recorded as 0% and the Z score is -0.05.
Take `CCNS(=O)(=O)[C@H]1CCN(C(=O)NCC2(C(F)F)CC2)C1`: the “% Inhibition” value was -11% and the Z score was determined as 1.33.
Take `CC(C)(C)C(=O)N1CCC[C@H]1c1nc(C2CCC2)no1`: the “% Inhibition” value is reported as -7% and the Z score came to 0.79.
As for `C[C@@H](CNC(=O)c1cc(-n2cccn2)ccc1Cl)n1ccnc1`, the “% Inhibition” value is reported as -2% and the Z score is 0.4.
`O=C1CC(N2C(=O)[C@@H]3CC[C@@H](c4ccccc4)N3C2=O)CN1C1CC1` (some centres not stated): the “% Inhibition” value is recorded as 6% and the Z score was -0.73.
On to `Cc1cc(Br)cc(S(=O)(=O)Nc2ccc3ncc(C)n3c2)c1`, for which the “% Inhibition” value came out at 2% and the Z score is recorded as -0.43.
In the case of `CC1CCCC(NC(=O)c2ccc3c(c2)OCO3)C1C` (configuration not stated), the “% Inhibition” value came out at 9% and the Z score was -1.64.
Turning to `O=C(CCN1CCCCO1)NC(Cc1ccccn1)[C@H]1C[C@@H](O)C1` (some centres not stated), the “% Inhibition” value came to 4% and the Z score is -0.77.
On to `O=C(c1cn(Cc2ccccc2)nc1OCc1ccccc1)N1CCC(Cc2ccccc2)CC1`, for which the “% Inhibition” value is recorded as -15% and the Z score was found to be 1.66.
In the case of `Fc1ccc(Oc2cc(N3CCCCCC3)ncn2)c(F)c1`, the “% Inhibition” value is recorded as -4% and the Z score is on record as 0.55.
On to `COCC[C@H](Nc1nc(C)ns1)C(N)=O`, for which the “% Inhibition” value is 4% and the Z score was -0.49.
Regarding `Cn1nccc1CNC(=O)CCc1ccc(Br)cc1`, the “% Inhibition” value was -6% and the Z score stood at 1.07.
In the case of `CCc1cccc2c(C3=CCN(C(=O)NC[C@H]4COCCO4)CC3)c[nH]c12`, the “% Inhibition” value came out at 30% and the Z score is recorded as -0.46.
The corresponding values for `Fc1cccc2nc(N3CCN(c4ccnnc4)CC3)oc12` are 5% and -0.97.
As for `O=C(NC1CC1)C1CCN(C(=O)C2CC3CCC2C3)CC1` (configuration not stated), the “% Inhibition” value worked out at 0% and the Z score is -0.01.
With `Cc1ccc(S(=O)(=O)Nc2cnc(N3CCCCCCC3)c(C(=O)O)c2)cc1C`, the “% Inhibition” value is given as -17% and the Z score is on record as 1.63.
Take `CN1CCCC[C@H](CC(=O)N2CCN(c3ccccn3)CC2)C1=O`: the “% Inhibition” value is -12% and the Z score turned out to be 2.38.
Turning to `CCn1ncc(CN(C)c2ncc(C#N)c(N)n2)c1C`, the “% Inhibition” value was found to be 0% and the Z score was -0.03.
Regarding `C[C@@H](C(=O)Nc1cccc(S(=O)(=O)N2CCCCC2)c1)N1CCN(c2ccccn2)CC1`, the “% Inhibition” value is -1% and the Z score was 0.11.
On to `CNC(=O)c1nn[nH]c1NC(=O)C[C@H](C)c1ccccc1C`, for which the “% Inhibition” value was found to be 10% and the Z score is listed as -1.18.
Regarding `NC(=O)C1CCN(C(=O)c2nnn(-c3ccccc3)n2)CC1`, the “% Inhibition” value is on record as -10% and the Z score is recorded as 1.42.
`Cc1nc2c(N3C[C@H]4CC[C@H]3C4)ncnc2o1`: the “% Inhibition” value is 15% and the Z score was -1.94.
For `CCS(=O)(=O)c1ccc(-c2nc([C@H]3CCO[C@@H]3C(C)(C)C)no2)cc1`, in that order: -14% and 2.08.
For `COc1cccc(C2Nc3ccc(C)cc3[C@H]3OCC[C@@H]23)c1OC1CCCC1` (some centres not stated), in that order: -12% and 1.96.
For `CCCCn1nc(C2CC2)nc1Cc1ccc(OC)c(OC)c1`, the “% Inhibition” value is on record as -12% and the Z score was found to be 1.47.
`Cc1cnccc1CN(C)C(=O)[C@H](C)N1CCN(C)CC1`: the “% Inhibition” value was -6% and the Z score worked out at 1.14.
The corresponding values for `Cc1ccc(CNC(=O)c2ccncc2)s1` are -6% and 0.78.
The corresponding values for `O=C(N[C@H]1CC[C@H](Oc2ccccn2)CC1)[C@H](O)c1ccccc1` are -2% and 0.27.
The corresponding values for `Cc1cccc([C@H](C(=O)O)N2CCC(Oc3ncccn3)CC2)c1` are -5% and 0.8.
For the compound `CC(C)(C)OC(=O)NC[C@@]12CCC[C@@H]1CN(C(=O)c1cccc3c1OCO3)C2`, the “% Inhibition” value is given as -4% and the Z score is reported as 0.67.
As for `O=C(CCc1ccc2c(c1)OCO2)N1CCC2(CC1)[C@H](O)C[C@@H]2OCCO`, the “% Inhibition” value is -10% and the Z score is 1.28.
For `COc1ccc(N(CC(=O)NCC#N)Cc2ccco2)cc1F`, the “% Inhibition” value is -14% and the Z score is on record as 1.42.
`Cc1nc(CNC(=O)N2CCC(COc3cc(Cl)cc(Cl)c3)CC2)no1`: the “% Inhibition” value is reported as -10% and the Z score was determined as 1.38.
Take `CO[C@@]1(c2nnc3n2CCN(C(=O)OC(C)(C)C)C(C)(C)C3)CCOC1`: the “% Inhibition” value is -11% and the Z score was 1.46.
Turning to `O=C(CN1CCC(Cn2c(C(F)(F)F)nc3ccccc32)CC1)Nc1nccs1`, the “% Inhibition” value is listed as 11% and the Z score is recorded as -1.94.

What is called % Inhibition is the relative decrease from the control value, in per cent.
